Laboratory results as given in patent publication US20260209325A1, “SELECTIVE AND POTENT INHIBITORY ANTIBODIES OF MYOSTATIN ACTIVATION” (SCHOLAR ROCK, INC., priority 2022, published 2026).

Key:
human pro-myostatin = human pro-myostatin (Homo sapiens, UniProt O14793); experiment: Biacore 8k SPR binding affinity, human pro-myostatin
Text: (§1) The Biacore™ 8k SPR system was utilized to evaluate the binding affinity of myostatin antibodies to biotinylated human, murine, and cyno pro-myostatin. Biotin CAPture kit and sensor chips (Cytiva) were utilized in these experiments to immobilize the various antigens, followed by flowing a range of concentrations of each of the test antibodies.

murine pro-myostatin = murine pro-myostatin (Mus musculus, UniProt O08689); experiment: Biacore 8k SPR binding affinity, murine pro-myostatin
Text: as §1

cyno pro-myostatin = cyno pro-myostatin (Macaca fascicularis, UniProt Q95J86); experiment: Biacore 8k SPR binding affinity, cyno pro-myostatin; parameters: species or system cynomolgus monkey
Text: as §1

[1] = AC-SINS self-interaction (aggregation behavior); format: physicochemical; conditions: cutoff: shift of >5 nm in plasmon wavelength
Outline: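 Antibodies captured on gold nanoparticles coated with anti-human polyclonal antibodies; self-association read as red shift of plasmon wavelength from 530 nm (unaggregated). Shift >5 nm taken as cutoff for self-interaction.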

[2] = high fat diet mice treated with metformin and antibody (Example 4); format: in vivo, mouse; conditions: for fat mass gain: 45% high fat diet, FIG. 12A
Description: Male C57/BL6 mice were fed a 60% high fat diet beginning at six weeks of age. At nineteen weeks of age (day 0), the mice were switched to a 45% high fat diet for 63 days. […] These mice were further divided into groups that received either 50 mg/kg of metformin or no metformin (Table 22a).
Body weight and food intake were monitored three times per week throughout the study. On days 7, 35, 49, and 63, body composition was determined by qNMR, and glucose, ketones, and insulin were measured. At the end of the study on day 63, body composition was determined by qNMR; glucose, ketones, and insulin were measured, gastrocnemius muscle, whole liver, epididymal, and subcutaneous adipose tissue was collected and weighed.
Male C57/BL6 mice (n=8/group) were fed a 60% HFD until week 18, at which time they are switched to a 45% HFD for 7 days. At day 7, animals in group 3-6 were treated with 50 mg/kg/day metformin, given orally throughout the remainder of the study.
Body weight was measured three times per week; lean mass and fat mass were measured by qNMR on days 7, 35, 49, 63, and 77; serum glucose was also measured on days 7, 35, 49, 63, and 77; serum insulin was measured on days 49, 63, and 77. A glucose tolerance test (GTT) and an insulin tolerance test (ITT) was administered between day 56 and day 63.

total myostatin = experiment: total serum myostatin (PD) in obese mice with or without semaglutide (Example 8); format: in vivo, mouse; conditions: 0.1 to 3 mg/kg, alone or with semaglutide; FIG. 16B
Description: Male 19 week old C7/BL6 mice fed a high fat diet to induce obesity (DIO-B6-M mice, were evaluated for the effect of the combination of antibody and semaglutide on the exposure of the antibody to the target antigen (PK) and the total myostatin serum level (PD), as shown in Table 25. Animals were dosed with antibody intraperitoneally on days 0, 7, and 14 and were dosed with semaglutide subcutaneously daily throughout the study. Exposure of the antibody to immobilized promyostatin was determined by ELISA. Total serum myostatin was also measured by ELISA. The study concluded on day 22, when terminal bleeds were obtained.

[3] = pharmacokinetics of Ab109 in Cynomolgus macaques (Example 10); format: in vivo
Description: A preliminary analysis of the pharmacokinetics of subcutaneous or intravenous dosing of Ab109 was determined in non-human primates following a single dose of Ab109 in five groups, each comprising three Cynomolgus macaques. Groups 1-4 were dosed subcutaneously with 0.3, 3, 10 or 30 mg/kg antibody, respectively. […] Samples were taken at day −1 (pre-dose), 1-hour and 8-hour post-dose, and at days 1, 3, 4, 5, 7, 10, 14, 17, 21, 28, 35, 42, 56 and 63 post-dose. An interim pharmacokinetic analysis was performed on samples up to 28 days post-dose.

B1: Ab109: anti-pro/latent myostatin antibody; CDR sequences in Table 2d (antibody)
heavy: EVQLVESGGGLVQPGGSLRLSCAASGFTFSSYGMSWVRQAPGKGLELVASFTGSGGTYYPDSVKGRFTISRDNAKNSLYLQMNSLRAEDTAVYYCARDLLIRFLEWSHYYGMDVWGQGTTVTVSSASTKGPSVFPLAPCSRSTSESTAALGCLVKDYFPEPVTVSWNSGALTSGVHTFPAVLQSSGLYSLSSVVTVPSSSLGTKTYTCNVDHKPSNTKVDKRV[human IgG4 Fc with S228P (EU numbers) left out]
light: DIVMTQSPLSLPVTPGEPASISCRSSQSLLHSSGHNFLHWYLQKPGQSPQLLIYEVSNRVSGVPDRFSGSGSGTDFTLKISRVEAEDVGVYYCMQQTQYPPTFGGGTKVEIKRTVAAPSVFIFPPSDEQLKSGTASVVCLLNNFYPREAKVQWKVDNALQSGNSQESVTEQDSKDSTYSLSSTLTLSKADYEKHKVYACEVTHQGLSSPVTKSFNRGEC
Human pro-myostatin
  Ka: 6.62e+06 M⁻¹ s⁻¹
  Kd (1/s): 0.000196 s⁻¹
Murine pro-myostatin
  Ka: 6.81e+06 M⁻¹ s⁻¹
  Kd (1/s): 0.00134 s⁻¹
Cyno pro-myostatin
  Ka: 7.23e+06 M⁻¹ s⁻¹
  Kd (1/s): 0.000925 s⁻¹
[1]
  aggregation behavior by AC-SINS: did not display aggregation behavior
[2]; combination of Ab109 and metformin 50 mg/kg
  fat mass gain: stopped the fat mass gain
[2]; monotherapy
  fat mass gain: Neither metformin alone nor Ab109 alone showed this effect
[2]; with or without metformin, FIG. 12B
  lean mass: gained more lean muscle mass regardless of whether they received metformin
Total myostatin
  serum total myostatin: not affected by the presence of semaglutide
[3]; single dose 0.3, 3, 10 or 30 mg/kg s.c. or 10 mg/kg i.v., up to 28 days, FIG. 24
  concentration of antibody in the serum: dose proportional
[3]; subcutaneous vs intravenous 10 mg/kg, AUC up to day 28 post-dose, interim analysis
  apparent bioavailability: greater than 85%
